The whole screen tested about 310,000 compounds, of which about 14,000 (4.5%) showed an effect of 50% or more. Effects have a minus sign here. This is one part of the list.
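Note: peak tail current of the secondary pulse compared with the same well before compound.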

The target in this experiment is human ether-à-go-go-related gene (hERG) potassium channel (human, UniProt Q12809). Briefly: primary screen, population patch clamp on CHO cells stably expressing hERG.
human ether-à-go-go-related gene (hERG) potassium channel, sequence (Q12809 whole entry, looked up): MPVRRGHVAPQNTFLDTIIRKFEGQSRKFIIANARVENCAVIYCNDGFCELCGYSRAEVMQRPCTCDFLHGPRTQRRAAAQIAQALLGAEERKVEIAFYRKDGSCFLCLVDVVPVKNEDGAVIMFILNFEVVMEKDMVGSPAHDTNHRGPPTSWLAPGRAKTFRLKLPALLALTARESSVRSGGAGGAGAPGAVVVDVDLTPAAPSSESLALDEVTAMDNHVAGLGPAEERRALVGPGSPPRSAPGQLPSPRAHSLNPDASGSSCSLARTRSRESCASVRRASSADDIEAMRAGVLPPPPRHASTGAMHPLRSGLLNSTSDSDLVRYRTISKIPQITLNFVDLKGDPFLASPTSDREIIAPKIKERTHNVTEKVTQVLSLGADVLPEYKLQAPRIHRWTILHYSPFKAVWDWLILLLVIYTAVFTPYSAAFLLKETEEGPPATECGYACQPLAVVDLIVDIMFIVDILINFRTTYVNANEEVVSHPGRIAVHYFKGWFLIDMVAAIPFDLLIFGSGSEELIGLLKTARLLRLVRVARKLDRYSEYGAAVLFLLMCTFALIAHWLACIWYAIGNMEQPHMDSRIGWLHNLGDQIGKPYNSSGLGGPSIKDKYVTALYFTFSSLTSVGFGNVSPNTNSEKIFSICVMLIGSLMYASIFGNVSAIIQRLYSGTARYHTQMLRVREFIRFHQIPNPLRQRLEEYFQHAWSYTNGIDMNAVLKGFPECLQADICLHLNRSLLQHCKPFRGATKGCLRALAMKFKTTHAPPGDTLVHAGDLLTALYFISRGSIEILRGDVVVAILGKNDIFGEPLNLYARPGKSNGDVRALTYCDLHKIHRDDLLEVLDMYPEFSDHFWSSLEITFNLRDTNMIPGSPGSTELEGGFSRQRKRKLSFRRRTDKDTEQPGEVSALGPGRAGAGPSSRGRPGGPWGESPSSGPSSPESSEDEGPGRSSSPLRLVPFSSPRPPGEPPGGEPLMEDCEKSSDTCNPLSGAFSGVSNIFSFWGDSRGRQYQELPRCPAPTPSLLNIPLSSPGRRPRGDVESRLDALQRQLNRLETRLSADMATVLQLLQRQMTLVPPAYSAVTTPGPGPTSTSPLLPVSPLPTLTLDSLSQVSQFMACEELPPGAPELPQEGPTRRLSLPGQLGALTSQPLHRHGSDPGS
Turning to `Cc1nc(C)c(C(=O)OCC(=O)NCCc2ccc(S(N)(=O)=O)cc2)s1`, the “hERG current change (%, negative = inhibition) at 10uM” value was -0.28%. Turning to `O=C(N=C1SC2CS(=O)(=O)CC2N1c1ccc(Br)cc1F)C1CC1` (centres unmarked), the “hERG current change (%, negative = inhibition) at 10uM” value was found to be 16.2%. Regarding `CN(CC(=O)Nc1cccc(F)c1)C(=O)c1ccc(N2CCCC2)c([N+](=O)[O-])c1`, the “hERG current change (%, negative = inhibition) at 10uM” value is -46.7%. Under `O=C(O)c1ccc(CSc2nnc(-c3ccncc3)n2-c2ccc(Br)cc2)cc1` stands -0.673%; under `CCCCn1c(N)c(N(CC(C)C)C(=O)c2cccc(S(=O)(=O)N3CCCCC3)c2)c(=O)[nH]c1=O`, 9.31%. With `CC(C)Nc1nc(NC(C)C)nc(Nn2cnnc2)n1` the figure was 19.2%. With `O=C(N=C1SC2CS(=O)(=O)CC2N1c1ccc(Br)cc1Cl)C1CC1` (centres unmarked) the figure was -29.6%; with `O=S(=O)(c1ccc(Br)cc1)N1CCOC12CCCCC2`, 12.5%; with `CC(C)(C)C(=O)NC1CCN(S(=O)(=O)c2ccccc2F)CC1`, 5.17%. Take `CCCCOC(=O)C1=C(C)NC(=O)NC1c1ccc([N+](=O)[O-])s1` (centres unmarked): the “hERG current change (%, negative = inhibition) at 10uM” value is 1.66%. With `COc1cc2c(=O)n(CCC(=O)NCC3CCCO3)c(=O)n(CC(=O)Nc3ccc(C)cc3)c2cc1OC` (centres unmarked), the “hERG current change (%, negative = inhibition) at 10uM” value came out at 0.242%. With `O=C(C1CCCC1)N(c1ccccc1)C1C=CS(=O)(=O)C1` (centres unmarked) the figure was -2.05%; with `COc1ccc(-n2nc3c(c2NC(=O)c2ccc(N4C(=O)CCC4=O)cc2)CSC3)cc1`, 22%. With `O=C(CSc1nnnn1-c1ccccc1)N1CCN(C(=O)c2ccco2)CC1` the figure was -49.4%; with `Cc1nc(NCCC(C)C)c2nnn(Cc3ccccc3)c2n1`, 12.6%.

Turning to `CCN1CCN(CCCNC(=O)c2csc3c2CCCCC3)CC1`, the “hERG current change (%, negative = inhibition) at 10uM” value is -7.21%. Under `Cc1onc(-c2c(F)cccc2Cl)c1C(O)c1ccc(F)cc1` (centres unmarked) stands 9.8%; under `COC(=O)C1=C(c2ccc(S(C)(=O)=O)cc2)C[C@@H]2CC[C@H]1N2C(=O)NCc1ccco1`, 2.75%.

For `C/C(=N\O)C(=O)Nc1ccccc1`, the “hERG current change (%, negative = inhibition) at 10uM” value is on record as 7.85%. With `COc1ccc(C(=O)COC(=O)c2c(-c3ccccc3)noc2C)c(OC)c1` the figure was 26.2%; with `CCOC(=O)CNC(=S)N1CCn2c(nc3ccccc32)C1`, -19.4%; with `CCCN(Cc1ccccc1)C(=S)Nc1cccc(C)c1C`, 57.5%. In the case of `COc1cc(/C=C(\C#N)c2nc3ccc(C)cc3[nH]2)c([N+](=O)[O-])cc1OC`, the “hERG current change (%, negative = inhibition) at 10uM” value is given as -1.7%. Under `CCn1c(SCC(=O)OC)nnc1-c1c[nH]c2ccccc12` stands 10.6%. With `O=C(Nc1ccc2c(c1)OCCO2)c1cc(-c2ccccn2)nc2ccc(Br)cc12` the figure was 6.13%; with `Cn1c(SCC(=O)NCc2ccc3c(c2)OCO3)ncc(C(=O)Nc2ccc(F)cc2)c1=O`, -15.3%; with `Cc1ccc(OP(=O)(NC(C)c2ccccc2)Oc2ccc(C)cc2)cc1` (centres unmarked), 17.6%.

Turning to `O=C(c1sc2cccc(Cl)c2c1Cl)N1CCN(CCc2ccccn2)CC1`, the “hERG current change (%, negative = inhibition) at 10uM” value is -28.9%. On to `O=C(Nc1ccccc1)N1CCCN(c2ccc(C(F)(F)F)cc2[N+](=O)[O-])CC1`, for which the “hERG current change (%, negative = inhibition) at 10uM” value was -39.9%. Turning to `O=S1(=O)c2ccccc2N=NN1Cc1cc(Cl)cc(Cl)c1`, the “hERG current change (%, negative = inhibition) at 10uM” value stood at 1.27%. With `COc1ccc(OC)c(NC(=S)N2CCN(C/C=C/c3ccccc3)CC2)c1` the figure was -33%. Under `O=C(c1ccccc1F)N1C[C@H]2C[C@@H](C1)c1cccc(=O)n1C2` stands 15.2%. With `CCCS(=O)(=O)N1CCCC(C(=O)NCCN2CCC(Cc3ccccc3)CC2)C1` (centres unmarked) the figure was -58.2%. Regarding `O=C(NCCCNC(=O)c1ccco1)c1ccc(Cl)c(Cl)c1`, the “hERG current change (%, negative = inhibition) at 10uM” value is reported as -26.4%. With `COC(=O)C(C)NC(=O)COc1ccc2ccccc2c1` (centres unmarked) the figure was -1.31%; with `Cc1n[nH]c(=O)c2c(NC(=O)COC(=O)COc3cccc(Br)c3)oc(C)c12`, -22.9%. With `COc1cc(OC)cc(C(=O)NCC(=O)NC(C)c2ccccc2)c1` (centres unmarked) the figure was 20.5%; with `CCN(Cc1ccccc1)C(=S)Nc1cc(C(=O)OC)ccc1C(=O)OC`, 17%; with `COc1cc(C(=O)NCCOc2cc(C)cc(C)c2)c(Br)c(OC)c1OC`, -18.4%. With `Cn1cnc(S(=O)(=O)Nc2ccc(C(F)(F)F)cc2)c1` the figure was -5.41%; with `COc1cc(C)c(C(=O)CSc2nnc(CNC(=O)c3ccco3)n2C)cc1C`, 3.76%. In the case of `CCCOc1ccc(N2CC(C(=O)Nc3ccccc3C(=O)NCc3ccco3)CC2=O)cc1` (centres unmarked), the “hERG current change (%, negative = inhibition) at 10uM” value is listed as -71.5%. Under `CS(=O)(=O)O.Cc1cccc2c1Sc1ccc(Cl)cc1CC2N1CCNCC1.O` (centres unmarked) stands 5.75%. Under `COc1cc(C)c2occ(/C(C)=N\O)c2c1` stands -8.95%; under `COc1ccc(CC2(CO)CCN(C(=O)NCc3ccccc3)CC2)cc1`, -2.8%; under `O=C1Nc2ccccc2/C1=C/c1cccnc1`, 8.64%. Under `C[C@@]12CCC3[C@@](CCC4[C@@]3(C)CCC[C@@]4(C)C(=O)NCc3ccccc3)(CC1=O)C2` (some centres unmarked) stands -5.33%; under `COc1cccc(OC)c1C(=O)Nc1ccc(C(=O)NCc2ccccc2)cc1`, 6.45%; under `COc1ccc(C(=O)Nc2ccc3c(c2)n(C)c(=O)n3C)cc1OC`, 11.7%. For `CC(C)NC(=O)C1CCN(C(=O)N(C)C)CC1`, the “hERG current change (%, negative = inhibition) at 10uM” value worked out at 5.89%.

Take `O=C(CCCCCN1C(=O)[C@@H]2Cc3ccccc3CN2C1=O)Nc1cccc(F)c1`: the “hERG current change (%, negative = inhibition) at 10uM” value is -67.9%. Under `Cc1nn(Cc2ccc(Cl)cc2)c(C)c1NC(=O)c1ccc([N+](=O)[O-])cc1` stands -72.6%. With `Cc1cc(C)nc(NC(=O)c2ccc3c(c2)OCO3)c1`, the “hERG current change (%, negative = inhibition) at 10uM” value is on record as 17.5%. With `Cc1ccc(OCCCN(C)C)c(Br)c1` the figure was -20.6%.

Turning to `CCOc1cc(C(=O)NC(=S)Nc2ccc(Cl)c(C(=O)O)c2)cc(OCC)c1OCC`, the “hERG current change (%, negative = inhibition) at 10uM” value is on record as 4.81%. Under `O=C(NCc1cnc2ccccn12)C1CCC(=O)N(Cc2ccccc2F)C1` (centres unmarked) stands 23.4%. With `Cc1ccccc1NS(=O)(=O)c1ccc(C(=O)OCC(=O)NCC(C)C)cc1` the figure was 9.28%. With `O=C(NCC1CCN(Cc2ccccc2Cl)CC1)Nc1cccc(Cl)c1` the figure was -72%; with `Cc1cc(C)c2c(=O)n(-c3ccccc3)[nH]c2n1`, 10.1%.

With `CC1CCCN(C(=O)CSc2nnc(-c3ccc(S(=O)(=O)N4CCOCC4)cc3)n2C)C1` (centres unmarked), the “hERG current change (%, negative = inhibition) at 10uM” value is on record as 2.33%.

As to `O=C(Nc1c(Cl)cc(Cl)cc1C(=O)NCC1CCCO1)c1ccco1` (centres unmarked), the “hERG current change (%, negative = inhibition) at 10uM” value was -1.1%. In the case of `CCN1CCN(C(c2cccs2)C(C)NC(=S)Nc2cccc(C)c2C)CC1` (centres unmarked), the “hERG current change (%, negative = inhibition) at 10uM” value is -72.9%. Under `Cc1ccc(C(C)C)cc1S(=O)(=O)Nc1ccncc1` stands 13.4%; under `CCN(C(=O)CSc1nc2ccc(OC)cc2[nH]1)C1CCS(=O)(=O)C1` (centres unmarked), 1.6%.

For the compound `Cc1ccc(-n2c(C)c([N+](=O)[O-])c3ccc(O)cc32)cc1`, the “hERG current change (%, negative = inhibition) at 10uM” value was 15.7%. Regarding `COC(CNC(=O)CCc1c(C)nc2c(c(C)nn2-c2ccc(C)cc2)c1C)OC`, the “hERG current change (%, negative = inhibition) at 10uM” value is given as 6.59%. With `O=C(c1cc(COc2ccc(F)cc2F)on1)N1CCCC(c2ccccc2)C1` (centres unmarked) the figure was 3.73%; with `C=CCN1CC2(c3ccccc3)CN(CC=C)CC(c3ccccc3)(C1)C2=O`, -19.3%.

Consider `NC(=O)COC(=O)c1ccc(Cl)c(S(=O)(=O)N(Cc2ccccc2)c2ccc(Cl)cc2)c1`, for which the “hERG current change (%, negative = inhibition) at 10uM” value was found to be 5.48%. Under `CC(C)(C)C1(O)CC(C(F)(F)F)=NN1C(=O)CCc1ccccc1` (centres unmarked) stands -48.4%. With `Cc1cc(C)cc(N2CC(O)=C(c3nc4ccccc4c(=O)[nH]3)C2=N)c1` the figure was 18.9%; with `Cc1cc(C)c2oc(=O)cc(CN3CCOCC3)c2c1`, 4.16%. For `CC(NS(C)(=O)=O)C(c1cccs1)N1CCN(C)CC1` (centres unmarked), the “hERG current change (%, negative = inhibition) at 10uM” value was determined as 8.91%. For `CC1=C(C(=O)Nc2ccccc2C(F)(F)F)C(c2sccc2C)NC(=S)N1` (centres unmarked), the “hERG current change (%, negative = inhibition) at 10uM” value was 31.4%.

As to `O=C(Nc1ccc(S(=O)(=O)N2CCCC2)cc1)c1cncc(Br)c1`, the “hERG current change (%, negative = inhibition) at 10uM” value is listed as -12%. Under `CSc1ccc(/C=C/c2ccc3cccc(O)c3n2)cc1` stands 10.6%; under `CC(C)n1nccc1N(Cc1ccc(Br)cc1)S(=O)(=O)c1ccccc1`, -15.7%. With `N=C1C(c2ccc(Br)cc2)=C(O)C2CCc3ccccc3N12` (centres unmarked) the figure was -30.5%.

On to `C=Cc1ccc(CN2CCCN(Cc3ccc(F)cc3)S2(=O)=O)cc1`, for which the “hERG current change (%, negative = inhibition) at 10uM” value was -1.13%. `CCc1cc2c(CN3CCN(Cc4ccccc4)CC3)cc(=O)oc2cc1O`: the “hERG current change (%, negative = inhibition) at 10uM” value is reported as -35.5%. With `COc1ccc(C2/C(=C(/O)c3ccccc3)C(=O)C(=O)N2C)cc1` (centres unmarked) the figure was 7.3%; with `O=C(ON=C1CCN(S(=O)(=O)c2ccccc2)CC1)c1ccc(Cl)cc1`, 11.1%.

In the case of `CCOC(=O)C1CCN(C(=O)C2CCCN(c3ncnc4c3nc3n4CCCCC3)C2)CC1` (centres unmarked), the “hERG current change (%, negative = inhibition) at 10uM” value is given as -34.1%.

Take `O=C(CSc1ccc2nnc(-c3ccncc3)n2n1)Nc1ccc2c(c1)OCCO2`: the “hERG current change (%, negative = inhibition) at 10uM” value is recorded as 10.9%.

On to `COc1ccc(-c2cc3c(=O)n(CC(=O)NCc4ccc(Cl)cc4)ncn3n2)cc1`, for which the “hERG current change (%, negative = inhibition) at 10uM” value worked out at 20.5%. With `Cc1ccc(CN2C(=O)c3ccccc3C2C(=O)NCc2cccnc2)cc1` (centres unmarked) the figure was -11.3%.
